# Test results reported in the RNAGym collection of RNA variant scans (doi:10.7554/elife.90254).
# The source gives no read counts; variants with many changes may rest on few reads.
# B1: LINE1-mini (parent)
# chain: GGCAGAGCUCAACACAGCGUGGCAAAGUGGCUGUGGCUAGACUGCC
# Variants of: B1
# Assay: self-cleavage, relative activity (ratio to wild type); higher = more cleavage; in vitro, sequencing; the parent is a self-cleaving ribozyme
row,Variant,self-cleavage
1,GGCAGCGCUCAACACAGCAUGGCAAAGUGGCUGGGGCUAGACUGCC,0.02
2,GGCAGCGCCUAACACAGCGUGGCAAAGUGGCUGUGGCUAGACUGCC,0.01
3,GGCAGCGCUCAACACAGGGUGGAAGAGUGGCUGUGGCUAGACUGCC,0.04
4,GGCAGCGCUCAACACAGCGGGGAAAAGUGGCUGCGCCUAGACUGCC,0.01
5,GGCAGCGCUCAAGACAGCGUGUCAAUGUGUCUGUGGCUAGACUGCC,0.17
6,GGCAGCGCUCAACACACCGUGGCUAAGUGUCUGUGGCUAGACUGUC,0.12
7,GGCAGCGCUCAACAAAGGGUGGCGAAGUGGUUGUGUCUAGACUGCC,0.01
8,GGCAGCGCUCAACACAGCGUUGCGAAGUGGCUGUGGCUAGACUGCC,0.78
9,GGCAGCGCUCAACACAGCGUGGCAAAGUGGCUGUGGCUGGACUGCU,0.02
10,GGCAGCGCUCAAUAAAGCUUGGCAAAGUGGCUGUGGGUAGACUGCC,0.22
11,GGCAGCGCUCAACACAGAAUGGCAAAGUGACUGUGGCUAGACUGCC,2.97
12,GGCAGCGUUCAACACAGCGUGGCAAAGUGUCUGUGGCUAGACUGCC,0.34
13,GGCAGCUCUCAACACAGGGUGGCAAAGUGGCUGUGGCUAGACUGCC,0.1
14,GGCAGCGGUCAACACAGCAUGGAAAAGUUGCUGUGGCUUGACUGCC,0
15,GGCAGCGCUCAACACACCGUCUAAAAGUGGCUGUGGCUAGACUGCU,0.32
16,GGCAGCGCUCAACACAGCGUGGCACAGUGGCUGUGGCUAGACUUCC,0.15
17,GGCAGCGCUCAACACAGCUGGGCACAGUGGCUGUGGCUAGACAGCC,0.11
18,GGCAGCUCUCAACACAGCGUGGCAAAGUGGCUGUUACUAGACGGCC,0.04
19,GGCAGCGCCCAACACAGCGUGACAUAUUGGCUGUCGCUAGACUGCC,0.06
20,GGCAGCGCUCAACACAGCGUGGCAAAGUGGUUGUGGCCAGACUGCC,0.02
21,GGCAGCGCUCAACACAGCGUGGCAACCUGGCUGUGCCUAGACUUCC,0.03
22,GGCAGCGCUCAACACAGCGCGGCAAAGUGGCUGUGGCUAGUCUGCC,0.25
23,GGCAGCGCACCACACAGCGUGCCAAAGUGGCUGUGACUACACUGCC,0.01

row,Variant,self-cleavage
1,GGCAGCGCUCAACAGAGCGUUGCCAAGUGGCUGUGGCUAAACUGCC,0
2,GGCAGCGCUCAACACAGCGUGUCGCAGUGGCUGUGGCUAGACUGCA,0.12
3,GGCAGCGCUCAACACAACGUGGGAAAGUGGCUGUGGCUAGACUGAC,0.02
4,GGCAGCGCUCAACACAGCGGGGCAAAGUGGCUGUCGCUAGACUGCC,0.13
5,GGCAGCGAUCAACACAAGGUGGUAAAGUGGCUGUGGCUAGACUGCC,0.01
6,GGCAGCGCUCAACACAGCGCGGCAAAGUGGCUGUGGAUAGACUGCC,0.05
7,GGCAGCGCUAAACACAGCAUGGCAAAGUGGCUGUGGCUAGACUGCC,0.05
8,GGCAGCGCUAAACACAGCGUGGCAAAGUGGCUGUGGCGAGACUGCU,0.01
9,GGCAGCGCUCAAGACAGCGUGGCAAAGUGGCUGUAGCUAGACUGCC,0.05
10,GGCAGCACUCAAAACAGCGUUGCAAAGUGGCUGUGGCUAGACUGCC,0.16
11,GGCAGCGCUCAACACAGCGUGACAAAGUGGCUGUGGCUGGACUUCC,0.06
12,GGCAGCGCUCAACAAAGCCUGGGAAAGUGGCUGUGGCUAGACUGCC,0.35
13,GGCAGCGGUGAACACAGCGUGGCAAAGUGGCUUAGGCUAGACUGCC,0.02
14,GGCAGCGCUGAUCACGGCUUGGCAGAGUGACUGUGGCUAGACUGCG,0
15,GGCAGCGCUCAACACAGCGUGGCAAAGUGGCUGUGGCUAAACUGCA,0.17
16,GGCAGCGGUCAACACAGCGUGGCAAAGUUGCUGUGGCUAGACUGCA,0.01
17,GGCAGCGGUCUACACAGCGUGGCAAAGUGGCUGUGGCUAGACUGCC,0.05
18,GGCAGCGCCCACCACAGCGUUGCAAAGUGGCUGUGGCUAGACUGCC,0.03
19,GGCAGCGCUCAACACAGCGUGGCAAAGUUGCUAUGGCUAGACUGCC,0.03
20,GGCAGCGCUCAACACAGCGUGGCAAAGUGGCUGUGGUUAGACAGCC,0.06
21,GGCAGCGCUAAAUACAGCGUGGCAAAGUCGUUGUGGCUAGACUGCC,0.02
22,GGCAGCGCUCAACACAGCGUGGCACAGUGGCUGUGGCUACACAGCC,0
23,GGCAGCGCUUAACACAGCGUGGCAAAAUGGCUGUGGCUUGACUGCC,0.28

row,Variant,self-cleavage
1,GGCAGCGCUCAACAGAGCGUGGCAAGGUGGCUGUGGCUAGACUGCC,0.04
2,GGCAGCGCUCAACACAGAGUGGCAAAGUGGCUGUUGCUAGACUGCC,0.03
3,GGCAGCCCUCAACACAGCGUGGCAAAGUGGCUGUGGAUAAACUGCC,0.03
4,GGCAGCGCUCAACACAGCGUGGCAUAGUGGGUGUGGCUAGACUGCC,0.08
5,GGCAGCGCUGAACAGAGAGUGGCAAAGAGGCUGUGGCUAGACUGGC,0.01
6,GGCAGCGCUCAACACAGCGUGGCAAAGUGGCUAUGGCUAGACUGUC,0.03
7,GGCAGCGCUCAACACAGCGUGGCAACGUCGCUGUCGCUAGACUGCC,0.05
8,GGCAGCGCUCAAUACAGCGUGGCAAAGUGGCUGCGGCUAGACUGCC,0.05
9,GGCAGCGCUCAACACAACGUGGCAAAGUAGCUGUGGCUAGACUGCC,0.35
10,GGCAGCGCUCAACACAACAUGGCAAAGUGGCUGUGGCUAGACUGAC,0.81
11,GGCAGCGCUCAAACCAGUGUGGCAAAAUGGCUGUGGCUAGACUGCC,0.17
12,GGCAGCGCUCAACACAGCGUGGCAAAGUGGACGUGGCUAGAUUGCC,0.1
13,GGCAGCGCUCAAUACAGCCUGGCAAAGUGGCGGUGGCUAGACUGCC,0.22
14,GGCAGCGCUCAAGACAGCGUCGGAAAGUCGCUGUGGCUAUACUGCC,0.07
15,GGCAGCGCUCAACACAGCGUGGCAAAGUGUCUGUGGCUAGACUGCA,0.54
16,GGCAGCGCUCAACACAGCGUGGUAAAGUGGCUGUGGAUAAACUGCC,0.07
17,GGCAGCGCUAAACAAUGCGUGGCAAAGUGGCUGUGGCUAGACUGCC,0.02
18,GGCAGCGCUCAACAUAGAGUGGCUAAGUGGCUGUGGCUAGACUGCC,0.02
19,GGCAGCGCUCAACACAGCGUAGCAAAGUGGCUGUGGCGAAACUGCC,0.02
20,GGCAGCGCUCAACACAGCGUGGAAAAGCGGCUGUGUCUAGACUGCC,0.06
21,GGCAGCGCUCAACACAGCGUGGCAAGGUGGCUGUAUCUAGGUUGCC,0.02
22,GGCAGCGCUCAACACAGCGCGGCAAAGUGGCUGGGGCUAGACUGCC,0.03
23,GGCAGCGCUCAAAACAGCGUGGCAAAAUGGCUGUGGCUAGACUGCC,0.14

row,Variant,self-cleavage
1,GGCAGCGCUCAACAUAGCGUGGCAAAGUGGUUGUGGCGAGACUGCC,0.04
2,GGCAGCGUUCAACACAGCGUGGCAAAGUGGCUGUUGCUAGUAUGCC,0
3,GGCAGCGCCCAACACAGCGUGGCAAAGUGGCUGUGGCCAGACUGCC,0.02
4,GGCAGCGCUCAACACAGCGUGGCAAAGUGGCUCUGGCUAGAAUGCC,0.02
5,GGCAGCGCUAGACACAGCGUGGCAAAGUGGCUGUUGCUAGACUGCC,0.01
6,GGCAGCGCUCAAGACAGCGUGGCAAGGUGCCUGAGGCUAGACUGCC,0.06
7,GGCAGCGCUCAACACAGCGUGGCUAAGUGGCUGUGGCUAGAGUGCC,0.06
8,GGCAGCGCUCAACACAGCGUGGCAAAGUGGCUGUUGCAAGACUGCC,0.18
9,GGCAGCGAUCAACAGAGCGUGGCAAAGUGGCUGUGGCUAGACUGCC,0.36
10,GGCAGCGCUCAAUACAGUGUGGGAAAGUGGCUGUGGCUAGACUGCC,0.09
11,GGCAGCUCUCAACUCAGCGUGGCAAAGUCGCUGUGGCUAGACAGCC,0.71
12,GGCAGCGCUCAACACAGCAUGGCACCGUGGCUGUGGCUAGACAGCC,0.02
13,GGCAGCGCUCAACACAGCGUGGUACAGAGGCUAUGGCUAGACUGCC,0.25
14,GGCAGCGCUCAACACAACGUGGCAAAGUGGCUGUGGCUACACUGUC,0.06
15,GGCAGCGCUCAACACAGCGUGGGAAAGUGGAUGUGGCUAGUCUGCC,0.04
16,GGCAGCGCUCAACAGAGCGUGGCAAAGUGGCUGUGGCUAGAAUGUC,0.01
17,GGCAGCUCUCAACACAGCGUGGCAAAGUCGCUGUGGCUAGACUGCC,0.03
18,GGCAGCGAUCAAAACAGCGUGGAAAAGUGGCUGUGGCUAGACUGCC,0.54
19,GGCAGCGCUCAACACAGCGAGGCAAAGUGGCUGUGGCUAAACUGUC,0.04
20,GGCAGCGCUCAACACAGCGUGGCGGAGUGGCUGUGGCUAGACUGCC,0.1
21,GGCAGCGCUCAACACAGCGUGGCGCAGUGGCUGUGGCUAGACUGCC,0.33
22,GGCAGCGCUCAACACAGCGUGGCAAAGUGGCUGUUGGUUGACUGCC,0.03
23,GGCAGCCCUCAACACAGCGUGGUAAAGUGGCUGUGGCUAGACUACC,0.13

row,Variant,self-cleavage
1,GGCAGCGGUGAACACAGCUUGGCAAAGUGGCUGUGGCUAGACUGCC,0.05
2,GGCAGCGCUCAACACAGCGUGGUAAAGUGGCUGUGCCUAGACUGCC,0.08
3,GGCAGCGCUCAACACAGCGUUGCAAAGAGGCUGUGGCUAGACUGCC,0.09
4,GGCAGCGCGCAACACAGCGUGGCAAAGUGGGUGUGGCUAGACUGGC,0
5,GGCAGCGCUCAACACAGAGUGGCAAAGUGGCUGUGGCCAGACUGCC,0.07
6,GGCAGCUCUCUACACAGCUUGGCAAAGUGGCUGUGGCUAGACUGCC,0.01
7,GGCAGCGCUCAACACAGCGUGGCAGAGUGGCUGUUGCUAGAAUGCC,0.01
8,GGCAGCGCUCAACACAUCGUGGCAAAGUGGUUGUGGCUAGACUGCA,0.09
9,GGCAGCGCUCAACACAGCGUGGCAACGUGGCUAUGGCUAGACUGCC,0.08
10,GGCAGCGCUCAACACAGCGUGGCAAAGUCGCUGUGGCUAUACUGCU,0.07
11,GGCAGCGCUCAACACAGCGUGGCAAAAUAGCUGUGGCUAUACUGCC,0.05
12,GGCAGCGCUAAACACAGCGUGGCAAAGGGGCUGUGGCUAGACUGCC,0.02
13,GGCAGCGCUCAACACAGCAUGGCAAAGUGGCUGCGGCUCGACUGCC,0.07
14,GGCAGCGCGGAACACAGCGUUGCAAAGUGGCUGUGGAUAGACUGUC,0.01
15,GGCAGCGCUCAACACAGCGUGGCAAAGUGGCUGUGGCUAGCCUGUC,0.03
16,GGCAGCGAUCAACACAGUGUGGCAAAGUGUCUGUUGCUAGACUGCC,0.04
17,GGCAGCGCUUAACACAGCGGGGCAAAGUGGCUGUGCCUAGCCUGCC,0.01
18,GGCAGCGCUCAACACAACGUCGCAAAGUGGCUGUGGCUAGACUGCC,0.18
19,GGCAGCGCUCAACACAGCGUGGCACAUUGGCUGUGGCUAGACUGCC,0.7
20,GGCAGCGCUCAACAGAGCGUGGCAAAGUGGCUGUGGCUAGAAUGCC,0
